This is an account of results in the antibiotic and cytotoxicity screens of Wong et al. (2023).

The other results are listed elsewhere or left out.

Assay [1] concerns HSkMC (human skeletal muscle cells). As to the kind of experiment: cytotoxicity call (relative viability < 0.9). Particulars: 10 µM.
Assay [2] has as its system HepG2. Put plainly: cytotoxicity call (relative viability < 0.9). Particulars: 10 µM.
Assay [3] has as its system S. aureus RN4220. As to the kind of experiment: growth inhibition call (relative growth <= 0.2). Particulars: 50 µM.

On to `O=C(O)CNC(=O)c1cc2ccccc2[nH]1`, for which the cytotoxicity call in assay [1] and in assay [2] was “inactive” each time. Moreover, the growth inhibition call in assay [3] is “inactive”.

Regarding `Cn1c(Nc2ccc(C(F)(F)F)cc2)nc2cc(Oc3ccnc(-c4ncc(C(F)(F)F)[nH]4)c3)ccc21`, the cytotoxicity call in assay [1] and in assay [2] was “active” throughout. The growth inhibition call in assay [3] is “inactive”.

For the molecule `C[C@@H]1CN([C@H](C)CO)C(=O)c2cccc(NS(=O)(=O)c3ccccc3)c2O[C@H]1CN(C)S(=O)(=O)c1ccc(F)cc1`, the cytotoxicity call in assay [1] and in assay [2] was “inactive” throughout. Besides, the growth inhibition call in assay [3] was “inactive”.

Consider `Cc1c(C(=O)O)sc(=O)n1C`, for which the cytotoxicity call in assay [1] and in assay [2] was “inactive” throughout. In addition, in assay [3], the growth inhibition call is “inactive”.

`Cc1noc(C)c1S(=O)(=O)N(C)C[C@H]1OCc2cn(nn2)CCCC(=O)N([C@@H](C)CO)C[C@@H]1C`: the cytotoxicity call in assay [1] and in assay [2] was “inactive” in each case. Besides, in assay [3], the growth inhibition call is “inactive”.

`CN(C)CCCNC(=O)C[C@@H]1CC[C@H]2[C@H](COc3ccc(NC(=O)c4ccccc4F)cc3C(=O)N2C)O1`: the cytotoxicity call in assay [1] and in assay [2] was “inactive” in each case. For the same molecule, the growth inhibition call in assay [3] was “inactive”.

Regarding `C[C@@H]1CCCCO[C@H](CN(C)S(=O)(=O)c2ccc(F)cc2)[C@@H](C)CN([C@H](C)CO)C(=O)c2cc(NS(=O)(=O)c3cn(C)cn3)ccc2O1`, the cytotoxicity call in assay [1] and in assay [2] was “inactive” each time. Moreover, the growth inhibition call in assay [3] was “inactive”.

`C[C@@H]1CN([C@@H](C)CO)C(=O)Cc2cc(NC(=O)C3CC3)ccc2O[C@H]1CN(C)Cc1ccc2c(c1)OCO2`: the cytotoxicity call in assay [1] and in assay [2] was “inactive” in each case. Moreover, in assay [3], the growth inhibition call is “inactive”.

With `C[C@@H]1CN([C@H](C)CO)C(=O)c2cc(NC(=O)CCN3CCOCC3)ccc2O[C@@H]1CN(C)S(=O)(=O)c1cccs1`, the cytotoxicity call in assay [1] and in assay [2] was “inactive” in each case. Further, in assay [3], the growth inhibition call is “inactive”.

Consider `CO[C@H]1O[C@H](CO)[C@@H](OC(=O)Nc2cccc(F)c2)[C@H](OC(=O)Nc2ccccc2-c2ccccc2)[C@H]1OC(=O)Nc1ccccc1-c1ccccc1`, for which the cytotoxicity call in assay [1] and in assay [2] was “active” each time. The growth inhibition call in assay [3] is “inactive”.

In the case of `Cc1noc(C)c1S(=O)(=O)Nc1ccc2c(c1)CC(=O)N([C@@H](C)CO)C[C@H](C)[C@@H](CN(C)C(=O)NC1CCCCC1)O2`, the cytotoxicity call in assay [1] and in assay [2] was “inactive” in each case. Further, in assay [3], the growth inhibition call was “inactive”.

Take `Cl.c1ccc2c(c1)CCCC2C1=NCCN1` (stereo unspecified): the cytotoxicity call in assay [1] and in assay [2] was “inactive” in each case. In assay [3], the growth inhibition call is “inactive”.

Regarding `Cc1cc(C(=O)Nc2cccc3c2O[C@@H](CN(C)C(=O)NC(C)C)[C@@H](C)CN([C@@H](C)CO)C3=O)n(C)n1`, the cytotoxicity call in assay [1] and in assay [2] was “inactive” throughout. Further, the growth inhibition call in assay [3] was “inactive”.

In the case of `COc1ccc(NC(=O)N(C)C[C@H]2OCCCC[C@H](C)Oc3ccc(NC(=O)Nc4ccc5c(c4)OCO5)cc3C(=O)N([C@@H](C)CO)C[C@@H]2C)cc1`, the cytotoxicity call in assay [1] and in assay [2] was “inactive” in each case. The growth inhibition call in assay [3] is “inactive”.

As for `CC(=O)N(C)C[C@H]1Oc2ncc(C#CC(C)(C)O)cc2C(=O)N([C@@H](C)CO)C[C@H]1C`, the cytotoxicity call in assay [1] and in assay [2] was “inactive” in each case. Also, the growth inhibition call in assay [3] is “inactive”.

For `C[C@H](CO)N1C[C@H](C)[C@H](CN(C)C(=O)NC2CCCCC2)Oc2ccc(NC(=O)CCCN(C)C)cc2CC1=O`, the cytotoxicity call in assay [1] and in assay [2] was “inactive” throughout. Also, the growth inhibition call in assay [3] was “inactive”.

`C[C@@H]1CCCCO[C@H](CN(C)Cc2ccc(C(F)(F)F)cc2)[C@@H](C)CN([C@@H](C)CO)C(=O)c2cc(NS(=O)(=O)c3ccc(F)cc3)ccc2O1`: the cytotoxicity call in assay [1] and in assay [2] was “inactive” throughout. Also, the growth inhibition call in assay [3] was “inactive”.

For `CC1=NN2C(=NN[C@@]2(C)c2ccccc2)NC1=O`, the cytotoxicity call in assay [1] and in assay [2] was “inactive” each time. In addition, the growth inhibition call in assay [3] is “inactive”.

For `O=c1cc(-c2ccccc2O)oc2ccc(O)cc12`, the cytotoxicity call in assay [1] and in assay [2] was “inactive” in each case. Also, the growth inhibition call in assay [3] was “inactive”.

Regarding `COc1ccc(S(=O)(=O)Nc2ccc3c(c2)CC(=O)N([C@H](C)CO)C[C@@H](C)[C@H](CN(C)C(=O)NC(C)C)O3)cc1`, the cytotoxicity call in assay [1] and in assay [2] was “inactive” each time. For the same molecule, the growth inhibition call in assay [3] is “inactive”.

In the case of `C[C@@H]1CCCCO[C@H](CN(C)S(=O)(=O)c2ccc(F)cc2)[C@@H](C)CN([C@@H](C)CO)C(=O)c2cc(NC(=O)Nc3ccc4c(c3)OCO4)ccc2O1`, the cytotoxicity call in assay [1] and in assay [2] was “inactive” throughout. For the same molecule, the growth inhibition call in assay [3] is “inactive”.

In the case of `COc1ccc(S(=O)(=O)N[C@@H]2C=C[C@H](CC(=O)N3CCC(Cc4ccccc4)CC3)O[C@H]2CO)cc1`, the cytotoxicity call in assay [1] and in assay [2] was “inactive” each time. The growth inhibition call in assay [3] was “inactive”.

Regarding `COc1ccc(S(=O)(=O)N(C)C[C@@H]2OCCCC[C@@H](C)Oc3ccc(NC(=O)Nc4ccccc4)cc3C(=O)N([C@H](C)CO)C[C@@H]2C)cc1`, the cytotoxicity call in assay [1] and in assay [2] was “inactive” throughout. Also, in assay [3], the growth inhibition call was “inactive”.

For `COc1ccc(CN(C)C[C@H]2Oc3ccc(NC(=O)Nc4cccc5ccccc45)cc3C(=O)N([C@@H](C)CO)C[C@@H]2C)cc1`, the cytotoxicity call in assay [1] and in assay [2] was “inactive” each time. For the same molecule, in assay [3], the growth inhibition call was “inactive”.

For `Nc1nnc(C2CC2)o1`, the cytotoxicity call in assay [1] and in assay [2] was “inactive” throughout. Moreover, the growth inhibition call in assay [3] is “inactive”.

On to `C[C@H]1CN([C@@H](C)CO)C(=O)CCCn2nncc2CO[C@H]1CN(C)C(=O)Nc1cccc(C(F)(F)F)c1`, for which the cytotoxicity call in assay [1] and in assay [2] was “inactive” in each case. Moreover, in assay [3], the growth inhibition call was “active”.

`COc1ccc(CSCCN)cc1Cl`: the cytotoxicity call in assay [1] and in assay [2] was “inactive” throughout. Moreover, the growth inhibition call in assay [3] was “inactive”.
